Reference: PubChem BioAssay AID488969 (Vanderbilt High Throughput Screening Facility, 2010)
In all, about 110,000 compounds were measured (“z-score”: median about -0.1, highest 2% from about 2 on). The list shows a part of the results. The source made the active and inactive calls.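 The calls were made as follows: active = z-score in the third read window above 3 or below -3; inactive = the rest.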

target: Metabotropic glutamate receptor 8 (Rattus norvegicus) (UniProt P70579); test: rat mGluR8 modulators via GIRK flux, primary screen, cell-based, thallium flux, HTS (AID 488969); conditions: HEK293 rat mGluR8, GIRK (G protein-gated inwardly rectifying potassium channel) thallium flux, FluoZin2; at 10 µM; stronger effect = higher value; submaximal glutamate (EC20) added with thallium
Sequence of UniProt P70579 (P70579 whole entry, looked up): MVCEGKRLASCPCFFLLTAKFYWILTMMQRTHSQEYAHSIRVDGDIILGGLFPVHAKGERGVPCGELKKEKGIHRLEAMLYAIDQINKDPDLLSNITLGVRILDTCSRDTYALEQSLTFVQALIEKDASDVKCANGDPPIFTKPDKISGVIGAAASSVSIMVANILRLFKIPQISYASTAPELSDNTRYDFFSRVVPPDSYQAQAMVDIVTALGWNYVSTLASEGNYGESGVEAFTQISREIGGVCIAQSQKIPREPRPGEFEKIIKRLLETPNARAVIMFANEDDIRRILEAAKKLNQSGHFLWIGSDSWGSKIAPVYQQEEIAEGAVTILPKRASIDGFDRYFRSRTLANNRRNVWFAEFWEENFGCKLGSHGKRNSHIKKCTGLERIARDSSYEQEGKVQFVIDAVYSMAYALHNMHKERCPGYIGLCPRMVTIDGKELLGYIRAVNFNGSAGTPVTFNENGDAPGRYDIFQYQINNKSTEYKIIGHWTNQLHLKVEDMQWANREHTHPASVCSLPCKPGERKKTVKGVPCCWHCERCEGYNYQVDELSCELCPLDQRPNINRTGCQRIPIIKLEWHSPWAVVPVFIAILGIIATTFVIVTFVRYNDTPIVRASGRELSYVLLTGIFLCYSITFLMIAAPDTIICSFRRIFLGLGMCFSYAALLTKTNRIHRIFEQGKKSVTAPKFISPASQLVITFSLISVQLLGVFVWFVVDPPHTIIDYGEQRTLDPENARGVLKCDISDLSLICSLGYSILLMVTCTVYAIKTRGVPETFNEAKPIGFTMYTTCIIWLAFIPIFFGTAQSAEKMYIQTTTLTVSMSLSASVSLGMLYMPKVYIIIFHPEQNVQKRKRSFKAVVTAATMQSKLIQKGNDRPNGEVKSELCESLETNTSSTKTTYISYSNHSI

| SMILES | z-score |
| --- | --- |
| O=C(O)CCCC(=O)NCc1ccccn1 | -0.279 |
| O=C(CSc1ccc(Cl)cc1)NCC1CCCO1 (stereo unspecified) | -0.031 |
| Cn1cc([N+](=O)[O-])c(C(=O)Nc2nc(-c3ccc(Cl)cc3)cs2)n1 | 0.61 |
| Cc1cc(C(=O)N/N=C/c2ccc(O)c([N+](=O)[O-])c2)c(C)n1-c1ccc(F)cc1 | -0.202 |
| CCCNc1ncnc2c1cnn2-c1ccc(OC)cc1 | -0.301 |
| COc1ccccc1-c1csc(NC(=O)c2cc(-c3cccs3)nc3ccccc23)n1 | -0.0159 |
| CCOc1ccc(CN2CCN(C(=O)c3cccc(F)c3)CC2)cc1 | -0.844 |
| Cc1cc(C)c(C)c(S(=O)(=O)Nc2ccc(O)cc2)c1C | -0.118 |
| O=C(Nc1ccc(S(=O)(=O)Nc2nccs2)cc1)c1ccc(S(=O)(=O)N2CCOCC2)cc1 | -0.0129 |
| CCCCC(=O)NC1(C(F)(F)F)C(=O)N(Cc2ccco2)C(C)=C1C(=O)OC (stereo unspecified) | 0.354 |
| CCc1c(C#N)c(SCCC(=O)Nc2ccc(OC)cc2)nc2c1C(=O)CC(C)(C)C2 | -0.459 |
| O=C(CCNS(=O)(=O)c1cccc2nonc12)N1CCN(c2cccc(Cl)c2)CC1 | -0.246 |
| NC(=O)c1cc(Cl)cn(-c2ccccc2)c1=O | 0.589 |
| O=c1oc2cc(O)ccc2c2c1CCCC2 | 0.0309 |
| Cc1ccc(NC(=O)NCCc2ccc(S(N)(=O)=O)cc2)cc1 | -0.0199 |
| CC1CCCC(=C\c2ccccc2)/C1=N/O (stereo unspecified) | -0.283 |
| COc1cc(C)ccc1OCCOc1c(Cl)cc(Cl)cc1Cl | -0.136 |
| CCCCNc1nc(=S)[nH]c2cc(OC)c(OC)cc12 | 0.479 |
| Cc1nn(C)c(C)c1CN(C)C(=O)CCCC(=O)O | -0.186 |
| Cc1cc(=O)[nH]c2c1cnn2Cc1ccccc1 | -0.424 |
| Cc1ccc(C(=O)NNC(=O)CSc2nnc3c(n2)[nH]c2ccc(F)cc23)cc1 | -0.118 |
| O=C(/C=C/c1ccc(Br)cc1)c1ccc(NC(=O)c2ccco2)cc1 | -0.379 |
| CCOC(=O)Cn1nc(-c2ccccc2)c2ccccc2c1=O | -0.698 |

| SMILES | z-score |
| --- | --- |
| COc1cc([N+](=O)[O-])cc(/C=N/NC(=O)C(C)Nc2cccc3ccccc23)c1O (stereo unspecified) | -0.626 |
| COc1ccc(OC)c(/C=N/NC(=O)CN2CCSCC2)c1 | 0.045 |
| CCCC(C)NC(=O)c1ccc(OCc2ccc(Cl)cc2)c(OC)c1 (stereo unspecified) | -0.735 |
| CCN(CC)S(=O)(=O)c1ccc(Cl)c(C(=O)Nc2cc(C)nn2-c2ccccc2)c1 | -1.22 |
| Cc1ccc(C(=O)Nc2nc(-c3cccnc3)cs2)o1 | -0.0733 |
| c1ccc(N/N=C(\Cc2nc3ccccc3[nH]2)c2ccccc2)cc1 | 0.00928 |
| COc1cccc(NS(=O)(=O)c2ccc3[nH]cc(C(=O)NCCCOC(C)C)c(=O)c3c2)c1 | -0.213 |
| CCOc1cc(C(N)=O)cc(Br)c1OC | -0.42 |
| CC(C)C1N(c2ccccc2)C(N)=C(C#N)C1(C#N)C#N (stereo unspecified) | -0.0335 |
| CCOc1cccc(C2C(C(=O)c3ccco3)=C(O)C(=O)N2Cc2ccncc2)c1 (stereo unspecified) | -0.856 |
| O=c1cc(CN2CCN(S(=O)(=O)c3ccc4c(c3)OCCO4)CC2)c2ccc(O)cc2o1 | 0.312 |
| CC1(C)Cc2c(c(N3CCCC3)nc3sc4c(N5CCN(CCO)CC5)ncnc4c23)CO1 | 0.293 |
| COC(=O)c1sc(S(=O)(=O)N2CCC(C)CC2)c(C(=O)OC)c1C | -0.262 |
| c1ccc(COc2nsnc2N2CCOCC2)cc1 | -0.329 |
| O=C(C1=C(O)C(=O)N(c2ncccn2)C1c1ccc(Cl)c(Cl)c1)c1ccco1 (stereo unspecified) | -0.896 |
| CCOC(=O)CSc1nnc(-c2ccccc2NC(=O)c2ccccc2)o1 | -0.284 |
| CSc1ccc(/C=N\NC(=O)CNc2ccc(C)cc2)cc1 | -0.273 |
| COC(=O)CSc1nnc(-c2cnccn2)n1C | -0.612 |
| Cc1cc(C)cc(C(=O)N2CC(C)SC2=Nc2cccc(S(=O)(=O)N(C)C)c2)c1 (stereo unspecified) | -0.624 |
| Cc1ccnc(NS(=O)(=O)c2ccc(NC(=O)c3cncc(Br)c3)cc2)n1 | -0.0801 |
| CC(C)(Oc1ccc(Cl)cc1)C(=O)OCC(=O)Nc1ncc(Cl)cc1Cl | -0.203 |
| Cc1ccc(S(=O)(=O)CCC(=O)Nc2nc3c(s2)CCCC3)cc1 | 0.0967 |
| Clc1ccc(CO/N=C2\CCCc3nonc32)cc1 | -0.224 |

| SMILES | z-score |
| --- | --- |
| CCOC(=O)C1CCN(C(=O)c2oc3ccc(S(=O)(=O)N4CCCCCC4)cc3c2C)CC1 | -1.51 |
| Cc1cccc2cc(CN(Cc3nnnn3Cc3ccccc3)C3CCCC3)c(=O)[nH]c12 | -0.368 |
| O=S(=O)(NCc1ccco1)c1cnc(Cl)c(Br)c1 | -0.0032 |
| CC(=C/c1ccccc1)/C=N/n1c(-c2ccco2)n[nH]c1=S | 2.16 |
| COC(=O)C(C(=O)OC)C(C(C)C)C(C(=O)OC)C(=O)OC | -0.152 |
| COC(CNC(=O)c1ccc(Cn2c(=S)[nH]c3cc4c(cc3c2=O)OCO4)cc1)OC | -0.243 |
| O=C(Nc1ccc2nsnc2c1)N1CCCCCC1 | -0.178 |
| O=C(NCC1CCCO1)C1CC(=O)N(C2CCCC2)C1 (stereo unspecified) | -0.08 |
| CC1(C)CN2C(=S)N(c3ccccc3)C(c3ccccc3)N2C1 (stereo unspecified) | -0.619 |
| Cc1ccccc1N=C1SCC(=O)N1Cc1ccccc1 | -0.164 |
| CC(c1cccnc1)N(CCN(C)C)C(=O)Nc1ccc(Cl)c(Cl)c1 (stereo unspecified) | -0.706 |
| O=C(NC1CCCCC1)C(c1ccccc1F)N(Cc1ccco1)C(=O)Cn1nnc2ccccc21 (stereo unspecified) | -0.0968 |
| CCOC(=O)c1ccccc1NC(=O)Cn1cnc2c(cnn2-c2ccc(F)cc2)c1=O | 1.16 |
| OCCSc1nc(-c2cccnc2)nc2ccccc12 | -0.755 |
| CCOC(=O)c1c(C)[nH]c(C(=O)OCC(=O)Nc2cc(Cl)ccc2OC)c1C | 0.576 |
| O=C(c1ccc(Cl)c(S(=O)(=O)NCc2ccccc2)c1)N1CCN(c2ccccn2)CC1 | -0.259 |
| CCN(CC)CCCn1c(=S)[nH]c2ccccc2c1=O | 0.126 |
| O=C(CCSCCC(=O)NCCN1CCOCC1)NCCN1CCOCC1 | 0.173 |
| CCN(CC)S(=O)(=O)c1ccc(C(=O)N2CCCCC2)cc1 | 0.109 |
| Cc1cccc2cc(CN(Cc3nnnn3Cc3ccco3)C3CCCC3)c3nnnn3c12 | -0.979 |
| O=C(CSc1ccc(Cl)cc1)Nn1cnnc1 | -0.297 |
| COc1cc2c(cc1OC)C1=C(C#N)CN(C3CCCCC3)CN1CC2 | 0.175 |
| CCc1ccc2c(c1)c1nnc(NN)nc1n2CC | -0.278 |

| SMILES | z-score |
| --- | --- |
| COCCn1c(C)cc(C(=O)CSc2ncnc3sc4c(c23)CCC4)c1C | 1.72 |
| CCN(CC)C(=O)c1ccc(COc2ccccc2Br)o1 | -1.24 |
| C=CCn1c(SCC(=O)Nc2sc3c(c2C#N)CCC3)nnc1C1COc2ccccc2O1 (stereo unspecified) | 0.0194 |
| CCN(Cc1ccccc1)C(c1ccc(C)cc1)c1nnnn1C(C)(C)C (stereo unspecified) | 0.051 |
| CCc1ccccc1OCCCCN1CCCC1 | 1.44 |
| OC(CN1C2=NCCCN2c2ccccc21)c1ccc(Br)cc1 (stereo unspecified) | active: 3.3 |
| CCNC(=O)Cn1cc(C#N)c2ccccc21 | -1.21 |
| O=C(NCCN1CCOCC1)c1cc(Cl)ccc1[N+](=O)[O-] | 5.55e-05 |
| COc1cccc(C(=O)NCC(=O)OCC(=O)c2ccccc2)c1 | -0.172 |
| COc1cc(CNc2ccc3c(c2)CCC3)cc(OC)c1O | 0.112 |
| CC(/C=N/N1CCN(c2ccccc2)CC1)=C\c1ccco1 | 0.13 |
| COc1ccc(C2Nc3ccccc3C(=O)N2c2ccc(C)cc2)cc1Cn1nnc2ccccc21 (stereo unspecified) | -0.299 |
| CCOC(=O)N1CCC(N2Cc3cccc(C(=O)N4CCN(C5CCCCC5)CC4)c3C2=O)CC1 | -0.345 |
| COc1cc(-c2nc3ccccc3c(=O)n2N)cc(OC)c1OC | -0.0215 |
| N#Cc1ccc(/C=C/C(=O)c2ccco2)cc1 | -0.0561 |
| CCOc1ccc(OCC)c(-c2c(=O)n(OCc3ccccc3C(=O)OC)c3ccccc3[n+]2[O-])c1 | -0.262 |
| CCn1c(CNc2ccc(C)cc2)nnc1SCC(=O)NCc1ccccc1 | -0.287 |
| Cc1ccc(NC(=O)C(C)c2ccc([N+](=O)[O-])cc2)cc1Cl (stereo unspecified) | -0.429 |
| COc1cc(NC(=S)NC(=O)c2ccc(C(C)(C)C)cc2)ccc1NC(=O)c1cccs1 | -0.0222 |
| CCOc1ncccc1C(=O)NCc1cccc(OC)c1 | -0.397 |
| CN(CCc1ccccn1)S(=O)(=O)c1ccc(F)cc1 | -0.0951 |
| O=[N+]([O-])c1ccc(Oc2cccc3cccnc23)c([N+](=O)[O-])c1 | -0.181 |
| Cc1sc2nc(C)n(/N=C/c3ccccc3O)c(=O)c2c1C | -0.126 |

| SMILES | z-score |
| --- | --- |
| O=C(CSc1nnc(Cc2ccccc2)n1-c1cccc(Cl)c1)N1CCOCC1 | 0.738 |
| C[N+]1(CC(=O)OCCCc2ccccc2)CCOCC1 | 0.941 |
| CC(C)[C@H](NC(=O)OCc1ccccc1)C(=O)OCC(=O)Nc1c(F)cccc1F | -0.556 |
| COc1ccccc1-c1cc(C(F)(F)F)nc(S(=O)(=O)CCCC(=O)N2CCCCC2C)n1 (stereo unspecified) | 0.809 |
| CS(=O)(=O)N(CC(=O)N1CCN(c2ccccc2)CC1)c1ccccc1Cl | -0.0986 |
| CCN(CCO)c1cc(Cl)nc(SC)n1 | -0.0741 |
| O=C(N/N=C/c1ccc(Cl)cc1)Nc1ccccc1 | -0.0155 |
| CCSc1nnc(NC(=O)C2CC2c2ccccc2)s1 (stereo unspecified) | -1.48 |
| Cc1c(Cl)cccc1NC(=O)c1ccc(-n2ccnc2)nc1 | 0.0859 |
| O=C(N/N=C/c1ccc(O)cc1)c1csc2ccccc12 | -0.157 |
| CSc1ccc(S(=O)(=O)Nc2ccc(N3CCOCC3)c(Cl)c2)cc1 | 0.314 |
| COc1ccc(OC)c(N(CC(=O)NCc2cccnc2)S(C)(=O)=O)c1 | 0.361 |
| Cc1ccc(C(C(=O)NC2CCCCC2)N(C(=O)Cc2c[nH]c3ccccc23)c2ccccc2C)o1 (stereo unspecified) | -0.247 |
| COc1cc(C(=O)OCc2ccc(C)cc2)cc(NC(=O)c2cccs2)c1OC | -0.449 |
| Cc1cc(Cl)c(OCCCSc2nc(C)cc(=O)[nH]2)c(Br)c1 | -0.354 |
| O=C1/C(=C/c2ccccc2)NC(=S)N1C(c1ccccc1)c1ccccc1 | -0.277 |
| Cc1cccc(NC(=O)CSc2ccc(-c3cccs3)nn2)c1C | -0.36 |
| CC(C)Cc1n[nH]c(=O)[nH]1 | 0.174 |
| Cc1c(C(=O)Nc2ccccc2-c2ccccc2)cccc1[N+](=O)[O-] | -0.148 |
